# Experimental data taken from the supplement of paper PMC8728848.
# This is one part of the list.
# Columns and labels:
# Assay in all cases: glycan array binding signal (z-score within array); higher = stronger binding
# Details in all cases: glycan notation: IUPAC condensed, linker removed
# Glc(a1-4)Glc = target: Glc(a1-4)Glc
# In short: (§1)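 The binding signal is a Z-score computed within each array and averaged over linkers. Arrays of the same protein sequence at different concentrations or buffers were also averaged together. Data originate from 3228 arrays in the Consortium for Functional Glycomics database, kept only where the protein sequence was available.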
# Glc(a1-6)Glc(a1-6)Glc = target: Glc(a1-6)Glc(a1-6)Glc
# In short: as §1
# Glc(b1-4)Glc = target: Glc(b1-4)Glc
# In short: as §1
# Glc(b1-6)Glc = target: Glc(b1-6)Glc
# In short: as §1
# GlcA(b1-3)Gal = target: GlcA(b1-3)Gal
# In short: as §1
# GlcA(b1-3)GlcNAc = target: GlcA(b1-3)GlcNAc
# In short: as §1
# GlcA(b1-6)Gal = target: GlcA(b1-6)Gal
# In short: as §1
# [1] = target: GlcNAc(a1-3)Gal(b1-4)GlcNAc
# In short: as §1
# [2] = target: GlcNAc(a1-4)Gal(b1-3)GlcNAc
# In short: as §1
# [3] = target: GlcNAc(a1-4)Gal(b1-4)GalNAc
# In short: as §1
# [4] = target: GlcNAc(a1-4)Gal(b1-4)GlcNAc
# In short: as §1
# [5] = target: GlcNAc(a1-4)Gal(b1-4)GlcNAc(b1-3)Gal(b1-4)Glc
# In short: as §1
# [6] = target: GlcNAc(a1-4)Gal(b1-4)GlcNAc(b1-3)Gal(b1-4)GlcNAc
# In short: as §1
# [7] = target: GlcNAc(a1-4)Gal(b1-4)GlcNAc(b1-3)Gal(b1-4)GlcNAc(b1-3)Gal(b1-4)GlcNAc
# In short: as §1
# [8] = target: GlcNAc(a1-4)Gal(b1-4)GlcNAc(b1-3)Gal(b1-4)[Fuc(a1-3)]GlcNAc(b1-3)Gal(b1-4)[Fuc(a1-3)]GlcNAc
# In short: as §1
# [9] = target: GlcNAc(a1-6)Gal(b1-4)GlcNAc
# In short: as §1
# [10] = target: GlcNAc(b1-2)Gal(b1-3)GalNAc
# In short: as §1
# [11] = target: GlcNAc(b1-2)Man(a1-3)[GlcNAc(b1-2)Man(a1-6)]Man(b1-4)GlcNAc(b1-4)GlcNAc
# In short: as §1
# [12] = target: GlcNAc(b1-2)Man(a1-3)[GlcNAc(b1-2)Man(a1-6)]Man(b1-4)GlcNAc(b1-4)[Fuc(a1-6)]GlcNAc
# In short: as §1
# GlcNAc(b1-3)Gal = target: GlcNAc(b1-3)Gal
# In short: as §1
# [13] = target: GlcNAc(b1-3)Gal(b1-3)GalNAc
# In short: as §1
# GlcNAc(b1-3)Gal(b1-4)Glc = target: GlcNAc(b1-3)Gal(b1-4)Glc
# In short: as §1
# [14] = target: GlcNAc(b1-3)Gal(b1-4)GlcNAc
# In short: as §1
# [15] = target: GlcNAc(b1-3)Gal(b1-4)GlcNAc(b1-3)Gal(b1-4)GlcNAc
# In short: as §1
# GlcNAc(b1-3)GalNAc = target: GlcNAc(b1-3)GalNAc
# In short: as §1
# GlcNAc(b1-3)Man = target: GlcNAc(b1-3)Man
# In short: as §1
# [16] = target: GlcNAc(b1-3)[GlcNAc(b1-4)][GlcNAc(b1-6)]GlcNAc
# In short: as §1
# [17] = target: GlcNAc(b1-3)[GlcNAc(b1-6)]Gal(b1-4)GlcNAc
# In short: as §1
# [18] = target: GlcNAc(b1-3)[GlcNAc(b1-6)]GalNAc
# In short: as §1
# [19] = target: GlcNAc(b1-4)Gal(b1-4)GlcNAc
# In short: as §1
# GlcNAc(b1-4)GlcNAc = target: GlcNAc(b1-4)GlcNAc
# In short: as §1
# [20] = target: GlcNAc(b1-4)GlcNAc(b1-4)GlcNAc
# In short: as §1
# [21] = target: GlcNAc(b1-4)GlcNAc(b1-4)GlcNAc(b1-4)GlcNAc(b1-4)GlcNAc
# In short: as §1
# [22] = target: GlcNAc(b1-4)GlcNAc(b1-4)GlcNAc(b1-4)GlcNAc(b1-4)GlcNAc(b1-4)GlcNAc
# In short: as §1
# [23] = target: GlcNAc(b1-4)[GlcNAc(b1-6)]GalNAc
# In short: as §1
# [24] = target: GlcNAc(b1-6)Gal(b1-4)GlcNAc
# In short: as §1
# GlcNAc(b1-6)GalNAc = target: GlcNAc(b1-6)GalNAc
# In short: as §1
# GlcNAc3Prop(b1-4)GlcNAc = target: GlcNAc3Prop(b1-4)GlcNAc
# In short: as §1
# [25] = target: GlcNAc6S(b1-3)Gal(b1-4)GlcNAc
# In short: as §1
# Kdn(a2-3)Gal(b1-3)GalNAc = target: Kdn(a2-3)Gal(b1-3)GalNAc
# In short: as §1
# Kdn(a2-3)Gal(b1-3)GlcNAc = target: Kdn(a2-3)Gal(b1-3)GlcNAc
# In short: as §1
# Kdn(a2-3)Gal(b1-4)Glc = target: Kdn(a2-3)Gal(b1-4)Glc
# In short: as §1
# Kdn(a2-3)Gal(b1-4)GlcNAc = target: Kdn(a2-3)Gal(b1-4)GlcNAc
# In short: as §1
# [26] = target: Kdn(a2-3)Gal(b1-4)[Fuc(a1-3)]GlcNAc
# In short: as §1
# Kdn(a2-6)Gal(b1-4)GlcNAc = target: Kdn(a2-6)Gal(b1-4)GlcNAc
# In short: as §1
binder,measurement,setting,value
"LcH (Lens culinaris), P02870 (protein) TETTSFSITKFSPDQQNLIFQGDGYTGKEGLTLTKVSKETGGRALYSTPIHIWDRDTVNVANFVTNGSQVFRESPNGYNVADGFTFFIAPVDTKPQTGGGYLGVFYNGKEYDKTSQTVAVEFDTFYNAAWDPSNKERHIGIDVNSIKSVNTKSWNLQNGVTSYTLNEVVPLKDVVPEWVRIGFSATTGAEFAAQEVHSWSFNSQLGHTSKS",glycan array binding signal (z-score),Glc(a1-4)Glc,0.046
same,glycan array binding signal (z-score),Glc(a1-6)Glc(a1-6)Glc,-0.098
same,glycan array binding signal (z-score),Glc(b1-4)Glc,-0.117
same,glycan array binding signal (z-score),Glc(b1-6)Glc,-0.116
same,glycan array binding signal (z-score),GlcA(b1-3)Gal,-0.111
same,glycan array binding signal (z-score),GlcA(b1-3)GlcNAc,-0.113
same,glycan array binding signal (z-score),GlcA(b1-6)Gal,-0.111
same,glycan array binding signal (z-score),[1],-0.119
same,glycan array binding signal (z-score),[2],-0.093
same,glycan array binding signal (z-score),[3],-0.044
same,glycan array binding signal (z-score),[4],-0.132
same,glycan array binding signal (z-score),[5],-0.067
same,glycan array binding signal (z-score),[6],-0.131
same,glycan array binding signal (z-score),[7],-0.063
same,glycan array binding signal (z-score),[8],-0.005
same,glycan array binding signal (z-score),[9],-0.102
same,glycan array binding signal (z-score),[10],-0.118
same,glycan array binding signal (z-score),[11],1.2
same,glycan array binding signal (z-score),[12],6.22
same,glycan array binding signal (z-score),GlcNAc(b1-3)Gal,-0.106
same,glycan array binding signal (z-score),[13],-0.13
same,glycan array binding signal (z-score),GlcNAc(b1-3)Gal(b1-4)Glc,-0.102
same,glycan array binding signal (z-score),[14],-0.134
same,glycan array binding signal (z-score),[15],-0.113
same,glycan array binding signal (z-score),GlcNAc(b1-3)GalNAc,-0.088
same,glycan array binding signal (z-score),GlcNAc(b1-3)Man,-0.124
same,glycan array binding signal (z-score),[16],-0.125
same,glycan array binding signal (z-score),[17],-0.119
same,glycan array binding signal (z-score),[18],-0.082
same,glycan array binding signal (z-score),[19],-0.097
same,glycan array binding signal (z-score),GlcNAc(b1-4)GlcNAc,-0.119
same,glycan array binding signal (z-score),[20],-0.107
same,glycan array binding signal (z-score),[21],-0.127
same,glycan array binding signal (z-score),[22],-0.139
same,glycan array binding signal (z-score),[23],-0.113
same,glycan array binding signal (z-score),[24],-0.122
same,glycan array binding signal (z-score),GlcNAc(b1-6)GalNAc,-0.11
same,glycan array binding signal (z-score),GlcNAc3Prop(b1-4)GlcNAc,-0.127
same,glycan array binding signal (z-score),[25],-0.112
same,glycan array binding signal (z-score),Kdn(a2-3)Gal(b1-3)GalNAc,-0.11
same,glycan array binding signal (z-score),Kdn(a2-3)Gal(b1-3)GlcNAc,-0.12
same,glycan array binding signal (z-score),Kdn(a2-3)Gal(b1-4)Glc,-0.124
same,glycan array binding signal (z-score),Kdn(a2-3)Gal(b1-4)GlcNAc,-0.066
same,glycan array binding signal (z-score),[26],-0.119
same,glycan array binding signal (z-score),Kdn(a2-6)Gal(b1-4)GlcNAc,-0.11
